Data: paper PMC7392005
Where a chain is given by its changes, count along the chain named. Results are given in words; binding and its absence hold for the method and conditions named. For some assays here: Binding seen in cells or lysates may run through a third protein. Some binding calls cover weakened binding; strength is not graded here. For some assays here: Sequences can lack the tags named with a protein.

Protein sequences, listed by entry. Tags and fused reporters are not part of them. Lines headed by an entry give the natural chain unless they say otherwise; changes in a name come on top.
UniProt Q04206: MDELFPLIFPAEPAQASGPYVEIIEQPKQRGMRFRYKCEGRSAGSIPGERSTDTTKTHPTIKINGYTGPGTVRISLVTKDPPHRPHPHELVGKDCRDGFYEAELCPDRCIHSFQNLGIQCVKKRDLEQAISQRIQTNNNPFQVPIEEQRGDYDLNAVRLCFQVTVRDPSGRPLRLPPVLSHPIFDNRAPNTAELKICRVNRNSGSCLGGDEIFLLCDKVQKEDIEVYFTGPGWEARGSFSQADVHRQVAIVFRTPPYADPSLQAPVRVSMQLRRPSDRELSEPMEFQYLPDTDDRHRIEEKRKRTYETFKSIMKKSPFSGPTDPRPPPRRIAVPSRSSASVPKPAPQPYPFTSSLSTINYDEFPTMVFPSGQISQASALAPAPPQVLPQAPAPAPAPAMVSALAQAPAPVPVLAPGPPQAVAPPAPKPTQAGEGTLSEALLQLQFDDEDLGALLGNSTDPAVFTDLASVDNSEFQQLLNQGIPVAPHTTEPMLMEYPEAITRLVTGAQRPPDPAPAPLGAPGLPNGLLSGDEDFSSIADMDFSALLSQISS

What was measured:
[1] = biological target: T1, HA-tagged FBP1 (fructose-1,6-bisphosphatase 1), wild type (UniProt P09467); test: co-IP; 293T cells transfected with HA-, Flag- or GFP-tagged proteins; IP buffer 50mM Tris-HCl pH 7.5, 150mM NaCl, 0.5% NP40; IP with anti-HA or anti-Flag and protein A/G agarose overnight at 4℃; immunoblot
T1 sequence: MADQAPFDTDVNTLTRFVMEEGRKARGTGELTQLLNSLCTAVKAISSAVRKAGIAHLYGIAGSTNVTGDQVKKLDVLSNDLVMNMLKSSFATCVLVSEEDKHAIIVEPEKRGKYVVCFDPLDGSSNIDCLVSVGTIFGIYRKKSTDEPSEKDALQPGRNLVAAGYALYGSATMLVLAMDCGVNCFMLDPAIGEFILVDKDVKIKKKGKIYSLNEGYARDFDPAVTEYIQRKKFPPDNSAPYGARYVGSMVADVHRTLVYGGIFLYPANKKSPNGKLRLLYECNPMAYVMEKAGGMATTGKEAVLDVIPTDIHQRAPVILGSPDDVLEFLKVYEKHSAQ

[2] = biological target: T2, HA-tagged FBP1 S144D (UniProt P09467); test: as above
T2 sequence: T1 sequence with S144D

[3] = biological target: T3, FBP1 (construct and source not shown: bait of the screen, Figures S2C, S2D and S3C) (UniProt P09467); test: immunoaffinity purification (screen with FBP1 as bait); FBP1 as bait to screen for interaction partners; details not shown
T3 sequence: T1 sequence

[4] = biological target: T4, endogenous FBP1 of MCF-7 cells (human (endogenous in MCF-7)) (UniProt P09467); test: co-IP; endogenous proteins of MCF-7 cell lysate; IP with anti-FBP1, anti-PIM2 or anti-p65; IP buffer 50mM Tris-HCl pH 7.5, 150mM NaCl, 0.5% NP40; immunoblot
T4 sequence: T1 sequence

GFP-tagged p65 DNA-binding domain (1-292aa) (from UniProt Q04206 1-292) (domain or fragment)
binding [1]: binds

Flag-tagged NF-κB p65 (from UniProt Q04206 1-551)
binding [2]: no binding
binding [1]: binds

NF-κB p65 (construct and source not shown: hit of the screen, Figure S2B) (from UniProt Q04206 1-551)
binding [3]: binds

endogenous NF-κB p65 of MCF-7 cells (from UniProt Q04206 1-551)
binding [4]: binds
